# Reference: the supplement of paper PMC8728848
# The other results are listed elsewhere or left out.
# Key:
# Assay in all cases: glycan array binding signal (z-score within array); higher = stronger binding
# Settings in all cases: glycan notation: IUPAC condensed, linker removed
# Gal(b1-4)Glc = biological target: Gal(b1-4)Glc
# Summary of the method: (§1)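 The binding signal is a Z-score computed within each array. Data were drawn from 3228 arrays in the Consortium for Functional Glycomics database, restricted to those with a known protein sequence. Scores were averaged over arrays of the same protein sequence at different concentrations or buffers, and over linkers, and negative values can be taken as non-binding.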
# Gal(b1-4)Glc6S = biological target: Gal(b1-4)Glc6S
# Summary of the method: as §1
# Gal(b1-4)GlcNAc = biological target: Gal(b1-4)GlcNAc
# Summary of the method: as §1
# [1] = biological target: Gal(b1-4)GlcNAc(a1-6)Gal(b1-4)GlcNAc
# Summary of the method: as §1
# Gal(b1-4)GlcNAc(b1-2)Man = biological target: Gal(b1-4)GlcNAc(b1-2)Man
# Summary of the method: as §1
# [2] = biological target: Gal(b1-4)GlcNAc(b1-2)Man(a1-3)Man(b1-4)GlcNAc(b1-4)GlcNAc
# Summary of the method: as §1
# [3] = biological target: Gal(b1-4)GlcNAc(b1-2)Man(a1-3)[Gal(b1-4)GlcNAc(b1-2)Man(a1-6)]Man(b1-4)GlcNAc(b1-4)GlcNAc
# Summary of the method: as §1
# [4] = biological target: Gal(b1-4)GlcNAc(b1-2)Man(a1-3)[Gal(b1-4)GlcNAc(b1-2)Man(a1-6)]Man(b1-4)GlcNAc(b1-4)[Fuc(a1-6)]GlcNAc
# Summary of the method: as §1
# [5] = biological target: Gal(b1-4)GlcNAc(b1-2)Man(a1-3)[Gal(b1-4)GlcNAc(b1-2)Man(a1-6)][Gal(b1-4)GlcNAc(b1-4)]Man(b1-4)GlcNAc(b1-4)[Fuc(a1-6)]GlcNAc
# Summary of the method: as §1
# [6] = biological target: Gal(b1-4)GlcNAc(b1-2)Man(a1-3)[Gal(b1-4)GlcNAc(b1-2)Man(a1-6)][GlcNAc(b1-4)]Man(b1-4)GlcNAc(b1-4)[Fuc(a1-6)]GlcNAc
# Summary of the method: as §1
# [7] = biological target: Gal(b1-4)GlcNAc(b1-2)Man(a1-3)[GlcNAc(b1-2)Man(a1-6)]Man(b1-4)GlcNAc(b1-4)GlcNAc
# Summary of the method: as §1
# [8] = biological target: Gal(b1-4)GlcNAc(b1-2)Man(a1-3)[GlcNAc(b1-4)][Gal(b1-4)GlcNAc(b1-2)Man(a1-6)]Man(b1-4)GlcNAc(b1-4)GlcNAc
# Summary of the method: as §1
# [9] = biological target: Gal(b1-4)GlcNAc(b1-2)Man(a1-3)[Man(a1-6)]Man(b1-4)GlcNAc(b1-4)GlcNAc
# Summary of the method: as §1
# [10] = biological target: Gal(b1-4)GlcNAc(b1-2)Man(a1-6)Man(b1-4)GlcNAc(b1-4)GlcNAc
# Summary of the method: as §1
# [11] = biological target: Gal(b1-4)GlcNAc(b1-2)Man(a1-6)[GlcNAc(b1-2)Man(a1-3)]Man(b1-4)GlcNAc(b1-4)GlcNAc
# Summary of the method: as §1
# [12] = biological target: Gal(b1-4)GlcNAc(b1-2)Man(a1-6)[Man(a1-3)]Man(b1-4)GlcNAc(b1-4)GlcNAc
# Summary of the method: as §1
# [13] = biological target: Gal(b1-4)GlcNAc(b1-2)[Gal(b1-4)GlcNAc(b1-4)]Man(a1-3)[Gal(b1-4)GlcNAc(b1-2)Man(a1-6)]Man(b1-4)GlcNAc(b1-4)GlcNAc
# Summary of the method: as §1
# [14] = biological target: Gal(b1-4)GlcNAc(b1-2)[Gal(b1-4)GlcNAc(b1-4)]Man(a1-3)[Gal(b1-4)GlcNAc(b1-2)[Gal(b1-4)GlcNAc(b1-6)]Man(a1-6)]Man(b1-4)GlcNAc(b1-4)GlcNAc
# Summary of the method: as §1
# [15] = biological target: Gal(b1-4)GlcNAc(b1-2)[Gal(b1-4)GlcNAc(b1-4)]Man(a1-3)[GlcNAc(b1-4)][Gal(b1-4)GlcNAc(b1-2)Man(a1-6)]Man(b1-4)GlcNAc(b1-4)GlcNAc
# Summary of the method: as §1
# [16] = biological target: Gal(b1-4)GlcNAc(b1-2)[Gal(b1-4)GlcNAc(b1-4)]Man(a1-3)[GlcNAc(b1-4)][Gal(b1-4)GlcNAc(b1-2)[Gal(b1-4)GlcNAc(b1-6)]Man(a1-6)]Man(b1-4)GlcNAc(b1-4)GlcNAc
# Summary of the method: as §1
# [17] = biological target: Gal(b1-4)GlcNAc(b1-2)[Gal(b1-4)GlcNAc(b1-6)]Man(a1-6)[Gal(b1-4)GlcNAc(b1-2)Man(a1-3)]Man(b1-4)GlcNAc(b1-4)GlcNAc
# Summary of the method: as §1
# [18] = biological target: Gal(b1-4)GlcNAc(b1-2)[Gal(b1-4)GlcNAc(b1-6)]Man(a1-6)[Gal(b1-4)GlcNAc(b1-2)Man(a1-3)]Man(b1-4)GlcNAc(b1-4)[Fuc(a1-6)]GlcNAc
# Summary of the method: as §1
# [19] = biological target: Gal(b1-4)GlcNAc(b1-2)[Gal(b1-4)GlcNAc(b1-6)]Man(a1-6)[GlcNAc(b1-4)][Gal(b1-4)GlcNAc(b1-2)Man(a1-3)]Man(b1-4)GlcNAc(b1-4)GlcNAc
# Summary of the method: as §1
# [20] = biological target: Gal(b1-4)GlcNAc(b1-2)[Gal(b1-4)GlcNAc(b1-6)]Man(a1-6)[GlcNAc(b1-4)][Gal(b1-4)GlcNAc(b1-2)[Gal(b1-4)GlcNAc(b1-4)]Man(a1-3)]Man(b1-4)GlcNAc(b1-4)[Fuc(a1-6)]GlcNAc
# Summary of the method: as §1
# [21] = biological target: Gal(b1-4)GlcNAc(b1-3)Gal(b1-3)GalNAc
# Summary of the method: as §1
# [22] = biological target: Gal(b1-4)GlcNAc(b1-3)Gal(b1-3)GlcNAc
# Summary of the method: as §1
# [23] = biological target: Gal(b1-4)GlcNAc(b1-3)Gal(b1-4)Glc
# Summary of the method: as §1
# [24] = biological target: Gal(b1-4)GlcNAc(b1-3)Gal(b1-4)GlcNAc
# Summary of the method: as §1
# [25] = biological target: Gal(b1-4)GlcNAc(b1-3)Gal(b1-4)GlcNAc(b1-2)Man(a1-3)[Gal(b1-4)GlcNAc(b1-3)Gal(b1-4)GlcNAc(b1-2)Man(a1-6)]Man(b1-4)GlcNAc(b1-4)GlcNAc
# Summary of the method: as §1
# [26] = biological target: Gal(b1-4)GlcNAc(b1-3)Gal(b1-4)GlcNAc(b1-2)Man(a1-3)[Gal(b1-4)GlcNAc(b1-3)Gal(b1-4)GlcNAc(b1-2)Man(a1-6)]Man(b1-4)GlcNAc(b1-4)[Fuc(a1-6)]GlcNAc
# Summary of the method: as §1
# [27] = biological target: Gal(b1-4)GlcNAc(b1-3)Gal(b1-4)GlcNAc(b1-2)[Gal(b1-4)GlcNAc(b1-3)Gal(b1-4)GlcNAc(b1-6)]Man(a1-6)[Gal(b1-4)GlcNAc(b1-3)Gal(b1-4)GlcNAc(b1-2)Man(a1-3)]Man(b1-4)GlcNAc(b1-4)GlcNAc
# Summary of the method: as §1
# [28] = biological target: Gal(b1-4)GlcNAc(b1-3)Gal(b1-4)GlcNAc(b1-2)[Gal(b1-4)GlcNAc(b1-3)Gal(b1-4)GlcNAc(b1-6)]Man(a1-6)[Gal(b1-4)GlcNAc(b1-3)Gal(b1-4)GlcNAc(b1-2)Man(a1-3)]Man(b1-4)GlcNAc(b1-4)[Fuc(a1-6)]GlcNAc
# Summary of the method: as §1
# [29] = biological target: Gal(b1-4)GlcNAc(b1-3)Gal(b1-4)GlcNAc(b1-3)Gal(b1-4)GlcNAc
# Summary of the method: as §1
# [30] = biological target: Gal(b1-4)GlcNAc(b1-3)Gal(b1-4)GlcNAc(b1-3)Gal(b1-4)GlcNAc(b1-2)Man(a1-3)[Gal(b1-4)GlcNAc(b1-3)Gal(b1-4)GlcNAc(b1-3)Gal(b1-4)GlcNAc(b1-2)Man(a1-6)]Man(b1-4)GlcNAc(b1-4)GlcNAc
# Summary of the method: as §1
# [31] = biological target: Gal(b1-4)GlcNAc(b1-3)Gal(b1-4)GlcNAc(b1-3)Gal(b1-4)GlcNAc(b1-2)Man(a1-3)[Gal(b1-4)GlcNAc(b1-3)Gal(b1-4)GlcNAc(b1-3)Gal(b1-4)GlcNAc(b1-2)Man(a1-6)]Man(b1-4)GlcNAc(b1-4)[Fuc(a1-6)]GlcNAc
# Summary of the method: as §1
# [32] = biological target: Gal(b1-4)GlcNAc(b1-3)Gal(b1-4)GlcNAc(b1-3)Gal(b1-4)GlcNAc(b1-2)[Gal(b1-4)GlcNAc(b1-3)Gal(b1-4)GlcNAc(b1-3)Gal(b1-4)GlcNAc(b1-6)]Man(a1-6)[Gal(b1-4)GlcNAc(b1-3)Gal(b1-4)GlcNAc(b1-3)Gal(b1-4)GlcNAc(b1-2)Man(a1-3)]Man(b1-4)GlcNAc(b1-4)[Fuc(a1-6)]GlcNAc
# Summary of the method: as §1
# [33] = biological target: Gal(b1-4)GlcNAc(b1-3)Gal(b1-4)GlcNAc(b1-3)Gal(b1-4)GlcNAc(b1-3)Gal(b1-4)GlcNAc(b1-2)Man(a1-3)[Gal(b1-4)GlcNAc(b1-3)Gal(b1-4)GlcNAc(b1-3)Gal(b1-4)GlcNAc(b1-3)Gal(b1-4)GlcNAc(b1-2)Man(a1-6)]Man(b1-4)GlcNAc(b1-4)GlcNAc
# Summary of the method: as §1
binder,measurement,setting,value
Cohesin-hMARCO (Homo sapiens) (protein) LDDLDAVRIKVDTVNAKPGDTVRIPVRFSGIPSKGIANCDFVYSYDPNVLEIIEIEPGDIIVDPNPDKSFDTAVYPDRKIIVFLFAEDSGTGAYAITKDGVFATIVAKVKEGAPNGLSVIKFVEVGGFANNDLVEQKTQFFDGGANVGDTTEPATPTTPVTTPTTTDDLDAASVRIVGSSNRGRAEVYYSGTWGTICDDEWQNSDAIVFCRMLGYSKGRALYKVGAGTGQIWLDNVQCRGTESTLWSCTKNSWGHHDCSHEEDAGVECSVHHHHHH,glycan array binding signal (z-score),Gal(b1-4)Glc,-0.326
same,glycan array binding signal (z-score),Gal(b1-4)Glc6S,-0.057
same,glycan array binding signal (z-score),Gal(b1-4)GlcNAc,-0.403
same,glycan array binding signal (z-score),[1],0.044
same,glycan array binding signal (z-score),Gal(b1-4)GlcNAc(b1-2)Man,-0.48
same,glycan array binding signal (z-score),[2],-0.089
same,glycan array binding signal (z-score),[3],-0.401
same,glycan array binding signal (z-score),[4],-0.471
same,glycan array binding signal (z-score),[5],-0.013
same,glycan array binding signal (z-score),[6],-0.601
same,glycan array binding signal (z-score),[7],-0.02
same,glycan array binding signal (z-score),[8],-0.286
same,glycan array binding signal (z-score),[9],-0.326
same,glycan array binding signal (z-score),[10],0.049
same,glycan array binding signal (z-score),[11],-0.317
same,glycan array binding signal (z-score),[12],-0.434
same,glycan array binding signal (z-score),[13],-0.58
same,glycan array binding signal (z-score),[14],-0.565
same,glycan array binding signal (z-score),[15],-0.409
same,glycan array binding signal (z-score),[16],-0.515
same,glycan array binding signal (z-score),[17],-0.167
same,glycan array binding signal (z-score),[18],-0.355
same,glycan array binding signal (z-score),[19],-0.395
same,glycan array binding signal (z-score),[20],-0.487
same,glycan array binding signal (z-score),[21],-0.248
same,glycan array binding signal (z-score),[22],-0.462
same,glycan array binding signal (z-score),[23],-0.283
same,glycan array binding signal (z-score),[24],0.118
same,glycan array binding signal (z-score),[25],1.43
same,glycan array binding signal (z-score),[26],0.29
same,glycan array binding signal (z-score),[27],1.01
same,glycan array binding signal (z-score),[28],-0.105
same,glycan array binding signal (z-score),[29],-0.337
same,glycan array binding signal (z-score),[30],0.365
same,glycan array binding signal (z-score),[31],0.198
same,glycan array binding signal (z-score),[32],0.329
same,glycan array binding signal (z-score),[33],0.272
